± gives the standard deviation of the averaged measurements. This is one part of the list.
system: PfAP2-EXP AP2 domain (GST-tagged); assay: gcPBM binding intensity (ln(normalized median fluorescence intensity)); higher = stronger DNA binding
Procedure, shortened: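 GST-fused DNA-binding domains of P. falciparum, expressed in E. coli, were applied at about 25 μg on average for 1 h to an Agilent 4 × 180k array of primer-extended double-stranded 36-bp intergenic genomic probes and negative controls. Binding intensity is the highest Masliner-normalised natural-log median intensity across replicate spots of either probe orientation, measured with Alexa488 anti-GST antibody and a 488 nm scan.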

Row | Sequence | gcPBM binding intensity (ln)
1 | TTTTTGTTAAACAGGGTGCTAATCTGAATTAATATT [GTGCAC_site9908] | 8.49 ± 0.22
2 | ACATATTTTATTTTTTGTACACATATATTATTTTTT [XGTACX_site6528] | 8.99 ± 0.42
3 | ATATATATATATTACACACACACAAAAAAAATAAAG [CACACA_site118] | 9.54 ± 0.23
4 | AATTTACAAATATAATGTACATAATTATATATATAT [XGTACX_site278] | 9.57 ± 0.26
5 | AAAAAAAAAAAAAATACACACATAAAATAAATAACA [CACACA_site439] | 8.5 ± 0.61
6 | TTTGGTTATATTTAAAAAAGACTAATGAAAATTAAA [XGTACX_negctrl_site526] | 8.15 ± 0.4
7 | CATACCATACATAAAACACACAAAATTTACAGAATA [CACACA_site7451] | 8.75 ± 0.37
8 | AATAGTAAAAATCACTGTACGTTTATTTTTAAAATG [XGTACX_site1035] | 8.34 ± 0.36
9 | CCATATACAACCATACGTACATATATATATATATAT [XGTACX_site8193] | 10.2 ± 0.2
10 | TATAATATTATACATAGTACACATCACACATCGCAA [XGTACX_site4650] | 8.85 ± 0.31
11 | TAGAAAAACATTACGTGTACCAAACATCCTAGCAAC [XGTACX_site4888] | 8.62 ± 0.2
12 | ATATTATTTATAGGGTGTACCTTATTATTATAAGAA [XGTACX_site7148] | 8.35 ± 0.18
13 | TATATACTTTTATGTACACACCTATAATATGGGTGA [CACACA_site5044] | 8.45 ± 0.33
14 | ATATCTTATGTTATCACACACACACGCACAAAACAG [CACACA_site6800] | 9.02 ± 0.28
15 | ATTTGTTTACCTAAAAGTACAAATTTTTTATGTATA [XGTACX_site7689] | 8.37 ± 0.33
16 | TGTATTTATAAACATGCACACGTGGTTGTATTTATA [CACACA_site5762] | 8.81 ± 0.23
17 | ATTTTTTTTATTTTTTATATAATTTTTTTATATTAT [CACACA_negctrl_site1521] | 8.44 ± 0.54
18 | TGTTTTGTTTTTTGGGGTACATGTTTTGTATTATAT [XGTACX_site7997] | 9.54 ± 0.71
19 | TATCCCTTAGAATACACACCCATATGAGTGTGAACT [CACACA_site7398] | 8.38 ± 0.38
20 | ATAATATATATATATGCATGTACATATTTATCTTTA [TGCATGCA_site32] | 8.78 ± 0.35
21 | AAGGCAAGCACTTAAACATGCATATAATAATATCAT [TGCATGCA_site698] | 8.72 ± 0.17
22 | ATGTATTAAAAAAATTGTACTATAAAATGTAACCGC [XGTACX_site8083] | 8.79 ± 0.32

Row | Sequence | gcPBM binding intensity (ln)
23 | AAAAAAAAAAAAAACATACACACAAATATATACATA [CACACA_site4010] | 8.5 ± 0.58
24 | TATACATACAGACCCACACACAAAAAAAAAAAAAAA [CACACA_site6536] | 8.19 ± 0.61
25 | ATATTATTTTAAAGTACACACATATATTAATATATA [CACACA_site2315] | 8.66 ± 0.15
26 | ATATATATATATATATGTACATATATATATGTATAT [XGTACX_site3959] | 10.2 ± 0.33
27 | TTAATTAAATATTATACACACAAAAAAATAACTTTA [CACACA_site6197] | 8.4 ± 0.42
28 | ATTTATTTATTTATATGTACTTATATATGTATTTTC [XGTACX_site6269] | 8.85 ± 0.25
29 | TATTGAAACGTATAGACACACATATGATATATATAT [CACACA_site3226] | 9.3 ± 0.085
30 | TGTATTTAAAATGGTTGTACATAAATAAAAATAAAA [XGTACX_site7771] | 8.71 ± 0.38
31 | AAAGTGTTAACCTAATCTTTAGTTTTTAAACAATAT [CACACA_negctrl_site841] | 8.17 ± 0.4
32 | ATAATATTTTGAAACGGTACACTTTTAAAATACACT [XGTACX_site4423] | 8.55 ± 0.46
33 | AAAATAAGGAAAAAAAAAAAAAAAAAAAAAAAAAAG [CACACA_negctrl_site1291] | 8.23 ± 0.58
34 | AAAAAAAAAAAACATACACACAAATATGTACATACA [CACACA_site7807] | 8.61 ± 0.21
35 | TATATATTAATATATGCATGTACGATTATTATAATA [TGCATGCA_site446] | 8.96 ± 0.42
36 | TAAATACAAAAATGTACACACATATAAATATTTTTA [CACACA_site7612] | 8.31 ± 0.28
37 | AATAAAAATCCACAAGCACACAAATGTACTTATATA [CACACA_site8783] | 8.18 ± 0.4
38 | AACACTACATAAAACTGTACAATAGTATTTTATTAT [XGTACX_site996] | 8.4 ± 0.33
39 | ACAAGATGATGGAAATGTACATAAAAAGAATCATAT [XGTACX_site8682] | 9.3 ± 0.44
40 | TTTTTTTTTATATTTAGTACATATATATTATTATAT [XGTACX_site3334] | 8.39 ± 0.31
41 | ATTATTAAAATGATATGTACGCACATAATATACATA [XGTACX_site3236] | 8.5 ± 0.24
42 | CTTAGTGTATTTGAATGTACGCATAAATATAATTAT [XGTACX_site2830] | 8.6 ± 0.33
43 | TATTTATATTTTAACACACACATATTTATATTTATA [CACACA_site7324] | 8.43 ± 0.3
44 | ATTTATTCATTTGGGTGTACTATTTAAAAAAAACAA [XGTACX_site498] | 8.66 ± 0.35

Row | Sequence | gcPBM binding intensity (ln)
45 | TATATTTTTTAAACCACACACAATATAGAGTATAAT [CACACA_site4510] | 8.66 ± 0.47
46 | TATATATAATTTTATACATGCACATATTATATATAT [TGCATGCA_site1036] | 8.79 ± 0.092
47 | TTTATATACTATTCAAAGTGATAAATAATATATGAA [TGCATGCA_negctrl_site352] | 8.21 ± 0.35
48 | TATAAATAAAGACACACACACATATAAATAAATATA [CACACA_site7155] | 8.82 ± 0.4
49 | ATTTATTTATTAAGATGTACTTATTAAAAATAATAA [XGTACX_site7392] | 8.04 ± 0.35
50 | AAAAAAAAAAAACATACACACAATAAAATAGGGGTA [CACACA_site2399] | 8.69 ± 0.49
51 | CACATACAGACATACACACACATATAGATTAATATA [CACACA_site6399] | 8.59 ± 0.41
52 | TTAGGGTTTTATAAATGTACTTATTTATACATCCTC [XGTACX_site5769] | 8.39 ± 0.42
53 | AATAAGAAATGTAAATGTACATAAAAAAAAGTATAT [XGTACX_site3573] | 9.03 ± 0.49
54 | TATATATATATATTATGTACATATATATTAAATATG [XGTACX_site2494] | 9.74 ± 0.38
55 | ATTAAATGCAGTTCGGTGCATTAAGGTTATGATGAA [GTGCAC_site9883] | 8.67 ± 0.16
56 | ATTTTTTAACATATCATACACACAACCACTTTTTAT [CACACA_site1961] | 8.82 ± 0.36
57 | TAAACATTTTTGCACGCACACAAAAAAAAAATAAAA [CACACA_site167] | 8.6 ± 0.3
58 | TTTTTAACATATCATACACACAACAACTTTTTATAG [CACACA_site1962] | 8.47 ± 0.42
59 | CAAGCCCTTCTGCTTACACACAGTAATTATTGTGTA [CACACA_site2953] | 8.48 ± 0.44
60 | TAAAAATATATACATACATGCATACATATATATGTA [TGCATGCA_site774] | 8.52 ± 0.25
61 | CATTCATTTATTAATTGTACTTTTAAGGTTAAATAA [XGTACX_site5838] | 8.28 ± 0.28
62 | ATTATATATACACGCACACACACTTATATATATATA [CACACA_site9093] | 9.97 ± 0.37
63 | TAGGAAAAGAAAAGCACACACATAAATAAATATATA [CACACA_site504] | 8.66 ± 0.45
64 | TAATTTATTATATTTTGTACGTAAAATTATTATTGT [XGTACX_site8155] | 8.43 ± 0.38
65 | AATATATATTTATATTGTACATATATATATATTTCT [XGTACX_site2603] | 8.42 ± 0.44
66 | AATATTTATTTTACATGTACTTATTTTTCTTTTAAC [XGTACX_site3631] | 9.02 ± 0.38

Row | Sequence | gcPBM binding intensity (ln)
67 | CCATTAAATACATACACACCCACACCCAAAAAAAAA [CACACA_site4633] | 9.04 ± 0.33
68 | AAAAAAAAAAATATAACACACAAAAAATTGTATCGA [CACACA_site1144] | 8.28 ± 0.56
69 | ACAAAATTTACAAAATGTACATATTGTAGATATTGT [XGTACX_site7618] | 8.34 ± 0.28
70 | ATATAGTAAAATTATACACACATGAATTTTCCCATA [CACACA_site3113] | 8.35 ± 0.32
71 | ATATAATGATAATATTGTACATGTTATATTTCAATA [XGTACX_site8645] | 8.36 ± 0.37
72 | ATATATTTAATATTCACACATAATTATTTTTACTCT [CACACA_site5438] | 8.59 ± 0.38
73 | TTGTAATATCTTGTCACACATATATATATATATATA [CACACA_site4937] | 10.2 ± 0.57
74 | TATAGATAAGAATATGCACACATTTTATTTTTTTTT [CACACA_site1982] | 8.33 ± 0.2
75 | TTTTTAATTTATTAAGAAGTAAAGAATAACTCTTTT [TGCATGCA_negctrl_site101] | 7.74 ± 0.37
76 | AAACATTAAAATAACTCACACATTTTTCTAGTCTTC [CACACA_site4612] | 8.36 ± 0.44
77 | GTATTATCTTTTAATAGTACATATTTTTTTGAAACA [XGTACX_site4050] | 8.26 ± 0.28
78 | CATATAATATTTGAAACTATATATAAATATAAGGTA [TGCATGCA_negctrl_site19] | 8.23 ± 0.34
79 | AATATATTTTTATATTGTACAAAAGAAAAAAAATAT [XGTACX_site1689] | 8.77 ± 0.47
80 | ATTTATTCATAGACAACAAGAAAAAAAAAAAAAATT [CACACA_negctrl_site1168] | 8.37 ± 0.52
81 | AGTTTTCCATGTTAATGTACTTAACAATACCATAAT [XGTACX_site209] | 8.9 ± 0.49
82 | TATATCCATATTGTATGTACACATATAATACCAATG [XGTACX_site7230] | 8.56 ± 0.22
83 | CATACATACAGACACACACACATATATATATATATA [CACACA_site2920] | 10.1 ± 0.35
84 | ATAAAAATACAGTTAACACACATGTGGATATATATG [CACACA_site3771] | 9.25 ± 0.44
85 | AACATAAAAATGAACATACACACATATATATATATA [CACACA_site2497] | 10.1 ± 0.28
86 | AAACAAAAAAGTAAGAAAAGGGATGATTGGATCCAA [CACACA_negctrl_site1230] | 8.61 ± 0.64
87 | AGATATTATAATTAATGTACAAAAAGAAAAAATAGA [XGTACX_site8964] | 8.87 ± 0.37
88 | CATATGTATATGACTACACACAAGGGTGTACAGATA [CACACA_site4776] | 8.37 ± 0.28

— the supplement of paper PMC11417369
